From publication PMC4336329 (PLoS ONE, 2015)
Out of some 310,000 compounds screened, about 14,000 (4.5%) showed an effect of 50% or more. The effect is printed as a negative number. This is one part of the list.

biological target: human ether-à-go-go-related gene (hERG) potassium channel (human, UniProt Q12809); assay: primary screen, population patch clamp on CHO cells stably expressing hERG
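Also: peak tail current of the secondary pulse compared with the same well before compound.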

Sequence of human ether-à-go-go-related gene (hERG) potassium channel (Q12809 whole entry, looked up): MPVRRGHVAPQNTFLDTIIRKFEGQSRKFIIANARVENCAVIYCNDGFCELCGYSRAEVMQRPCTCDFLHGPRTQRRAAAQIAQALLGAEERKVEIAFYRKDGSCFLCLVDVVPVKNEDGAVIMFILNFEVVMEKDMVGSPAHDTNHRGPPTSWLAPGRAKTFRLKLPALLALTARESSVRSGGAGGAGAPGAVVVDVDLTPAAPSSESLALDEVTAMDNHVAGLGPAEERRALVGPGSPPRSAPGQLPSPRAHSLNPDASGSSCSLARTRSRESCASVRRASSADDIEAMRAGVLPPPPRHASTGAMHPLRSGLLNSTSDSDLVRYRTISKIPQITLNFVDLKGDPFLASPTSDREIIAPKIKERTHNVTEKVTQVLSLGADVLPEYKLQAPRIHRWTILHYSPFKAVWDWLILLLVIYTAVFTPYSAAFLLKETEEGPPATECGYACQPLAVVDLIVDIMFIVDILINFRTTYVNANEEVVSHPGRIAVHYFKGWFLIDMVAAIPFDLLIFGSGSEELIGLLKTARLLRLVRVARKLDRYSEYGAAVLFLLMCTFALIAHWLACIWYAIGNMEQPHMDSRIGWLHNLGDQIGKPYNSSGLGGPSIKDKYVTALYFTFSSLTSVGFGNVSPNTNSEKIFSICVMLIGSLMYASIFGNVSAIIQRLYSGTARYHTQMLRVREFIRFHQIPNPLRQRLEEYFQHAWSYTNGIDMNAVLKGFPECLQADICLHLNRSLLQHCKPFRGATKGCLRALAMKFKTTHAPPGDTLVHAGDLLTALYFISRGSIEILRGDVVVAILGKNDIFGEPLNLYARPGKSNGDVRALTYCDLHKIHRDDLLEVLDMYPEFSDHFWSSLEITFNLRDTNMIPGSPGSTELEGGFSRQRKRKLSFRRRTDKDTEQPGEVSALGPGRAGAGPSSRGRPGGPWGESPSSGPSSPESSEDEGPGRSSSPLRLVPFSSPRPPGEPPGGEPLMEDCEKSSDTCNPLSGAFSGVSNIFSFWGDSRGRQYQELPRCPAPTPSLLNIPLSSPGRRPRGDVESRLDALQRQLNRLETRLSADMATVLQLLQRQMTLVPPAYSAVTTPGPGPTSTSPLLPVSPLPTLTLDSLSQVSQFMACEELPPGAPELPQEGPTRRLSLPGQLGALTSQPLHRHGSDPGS

Point of comparison: `CC1CCN(S(=O)(=O)c2ccc(NC(=O)CN3CCCC3)cc2)CC1.O=C(O)C(=O)O`, “hERG current change (%, negative = inhibition) at 10uM” value -8.37%. Against it:
- Cc1ccc(S(=O)(=O)c2c(N)n(CCC(C)C)c3nc4ccccc4nc23)cc1 — higher, -6.38%
- CCN(CC)CCNC(=O)c1ccc(NC(=O)C2CC(=O)N(CCc3ccc(OC)c(OC)c3)C2)cc1 (stereo not drawn) — higher, 14.9%
- C=CCNC(=O)C1CC2Cn3c(nc4cc5ccccc5cc43)C2N1C (stereo not drawn) — lower, -16.2%
- COc1cc(C2C(C(=O)C(C)(C)C)=C(O)C(=O)N2Cc2ccccc2)ccc1O (stereo not drawn) — higher, -1.33%
- CC(C)N(C(=O)CSc1nnc(NC2CC2)s1)c1ccccc1 — lower, -13.1%
- COc1ccc(/C=N/NC(=O)CC(=O)NCc2cccnc2)cc1[N+](=O)[O-] — higher, 16%
- CCOC(=O)N1CCN(C(=O)c2nn(C)c3c2CSc2ccccc2-3)CC1 — lower, -43.2%
- CC(C)(C)Nc1nc(Cl)nc(N(C#N)CN2C(=O)c3ccccc3S2(=O)=O)n1 — higher, 22.9%
- CC1CCN(C(=O)COc2ccc(Nc3ccccc3)cc2)CC1 — higher, 2.41%
- CN1C(=O)CSc2ccc(NC(=O)N3CCc4ccccc43)cc21 — higher, -2.28%
- CCOc1cc(C2C3=C(CCCC3=O)Nc3nc(C(=O)OC)nn32)ccc1OC (stereo not drawn) — higher, 20.3%
- CCCNC(=O)c1ccc2c(=O)c(O)c(-c3ccc(F)cc3)[nH]c2c1 — lower, -10.3%
- COc1ccc(N(C(=O)CNC(=O)c2cccs2)C(C(=O)NCC2CCCO2)c2ccccc2)c(OC)c1 (stereo not drawn) — higher, 12.5%
- COc1ccc(CCn2c(-c3ccccc3)nc3c(c(=O)c4ccccc4n3C)c2=O)cc1 — higher, 11.3%
- O=C1C(c2ccnc3ccccc23)=C(O)c2ccccc21 — higher, -4.78%
- Cc1ccc(Cl)c(OCC(=O)N2CCc3ccccc3C2)c1 — higher, 4.64%
- Cc1ccc(C(C)C)c(OCc2nnc3n2CCCCC3)c1 — lower, -29.3%
- CCNc1nc(N)nc(Oc2ccc(OCCOc3ccc(Cl)cc3Cl)nn2)n1 — lower, -25.5%
- O=C(NC(Cc1cnc[nH]1)C(=O)O)c1ccccc1 (stereo not drawn) — higher, 6.1%
- CCOc1ccc(N(C(=O)CNC(=O)c2ccco2)C(C(=O)NC2CCCC2)c2cccnc2)cc1 (stereo not drawn) — higher, 13.4%
- Cc1cc(C)cc(NC(=O)c2ccc(CN3CCc4ccccc4C3)cc2)c1 — lower, -15.3%
- O=c1c2ccccc2c(-c2ccc(Br)cc2)nn1Cc1ccccc1 — higher, 5.58%
- N#Cc1cccc(Oc2ccc(-c3cnc4ccccc4n3)cc2)c1C#N — higher, 2.61%
- N#C/C(=C/c1ccc(N2CCCCC2)o1)C(=O)NCCc1c[nH]c2ccccc12 — higher, 0.553%
- CCOc1ccc(C(=O)N(c2ccccn2)C2CCCCC2)cc1 — higher, 10.5%
- CCOc1ccc(N(CC(=O)Nc2cccnc2)S(=O)(=O)c2ccc(C)cc2)cc1 — higher, -5.5%
- CCOc1ccccc1-c1cc(C(=O)N/N=C/c2cccnc2)c2ccccc2n1 — higher, -6.35%
- Cc1sc2nc(CN3CCCCC3)nc(N3CCN(C(=O)c4ccco4)CC3)c2c1C — lower, -75%
- CSc1ncc(CNc2cc([N+](=O)[O-])ccc2C)c(N)n1 — lower, -24.2%
- CCOc1ccc(C2CC(c3ccccc3C)n3nc(N)nc3N2)cc1 (stereo not drawn) — higher, 8.79%
- CCc1ccc(N2CC(C(=O)Nc3cccnc3)CC2=O)cc1 (stereo not drawn) — higher, -6.3%
- CCOC(=O)C1=C(C)NC2(O)c3ccccc3C(=O)C12O (stereo not drawn) — higher, -2.65%
- O=C(O)c1ccc2nc(-c3ccccc3)c(-c3ccccc3)nc2c1 — higher, 8.03%
- Cc1ccc(/C(O)=C/c2nc3ccccc3oc2=O)cc1 — higher, 5.9%
- CCOC(=O)C1CCN(C(=O)c2ccc(NC(=O)C3CCCO3)cc2)CC1 (stereo not drawn) — lower, -9.35%
- CC(C)(C)C(=O)Nc1ccc(-c2cn3cccnc3n2)cc1 — higher, -5.74%
- Cc1cc(C)cc(NC2=NC3(CCCCC3)N=C(N)N2)c1 — higher, 2.04%
- COc1cc2c(cc1OC)N1C(=O)CC(OCC(=O)O)C3C4CC5(CCN5C(=O)C4=O)C2C31 (stereo not drawn) — higher, 29%
- O=C(Nc1ccc(CN2CCOCC2)cc1)c1cccc(F)c1 — higher, -5.24%
- S=c1nc(NCc2ccc3c(c2)OCO3)c2ccccc2[nH]1 — higher, 15.4%
- Cc1ccc(CNC(=O)C2CCN(C(=O)c3cccc(Cl)c3)CC2)cc1 — lower, -8.78%
- Cc1ncc([N+](=O)[O-])n1CC(=O)Nc1cc(Cl)ccc1Cl — higher, 17.3%
- Cc1occc1C(=O)NC1CCCN(Cc2ccc(Cl)cc2)C1 (stereo not drawn) — lower, -38.4%
- CS(=O)(=O)N(CC(=O)Nc1ccc(S(=O)(=O)N2CCCC2)cc1)c1cccc(F)c1 — lower, -9.92%
- O=C(O)c1cc(-c2cccs2)nc2ccc(Br)cc12 — higher, 21%
- CCOC(=O)c1ccccc1NC(=O)c1ccc(NS(C)(=O)=O)cc1 — lower, -54.7%
- O=C(CNC(=O)c1ccccc1F)OC(C(=O)Nc1cc(C(F)(F)F)ccc1Cl)c1ccccc1 (stereo not drawn) — higher, 5.27%
- Cc1ccc(Nc2ccc(S(=O)(=O)N3CCOCC3)cc2[N+](=O)[O-])cc1C — higher, -6.97%
- COc1ccc(CCNC(=O)c2nnn(-c3ccccc3OC)c2N)cc1OC — higher, -1.21%
- CCC(=O)NCc1nc2ccccc2n1Cc1ccccc1F — higher, -6.97%
- COc1ccc(C(=O)NC2CCCc3c2cnn3-c2ccc(C)c(C)c2)c(OC)c1OC (stereo not drawn) — higher, -7.05%
- Cc1ccc(/C=N/NC(=O)C2CC(=O)N(c3ccccc3)C2)s1 (stereo not drawn) — lower, -23.5%
- CC1CCN(C(=O)CSc2nnc(CSc3ncccn3)n2C)CC1 — higher, 12.6%
